Source: the supplement of paper PMC12217912
This is one part of the list. Sequences were assembled here from the parent chain. Inactive controls read about 0.05.

B1: TEV protease; numbered along this chain (parent)
chain: MGESLFKGPRDYNPISSSICHLTNESDGHTTSLYGIGFGPFIITNKHLFRRNNGTLVVQSLHGVFKVKDTTTLQQHLVDGRDMIIIRMPKDFPPFPQKLKFREPQREERICLVTTNFQTKSMSSMVSDTSCTFPSGDGIFWKHWIQTKDGQCGSPLVSTRDGFIVGIHSASNFTNTNNYFTSVPKNFMELLTNQEAQQWVSGWRLNADSVLWGGHKVFMVKPEEPFQPVKEATQL

Variants of: B1
Experiment: raw area under fraction-flipped curve 0-4 h after induction (AUC4h, not background-subtracted), DNA-recorder readout of cleavage of the substrate (dimensionless); higher = more cleavage of the substrate by the protease variant
Conditions: temperature: 34 °C; time window: 0-4 h after rhamnose induction
Experimental: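 In vivo DNA recorder in E. coli TOP10(DE3) ΔrhaA at 34 °C. Each TEVp single-site mutant (parent TEVp 0) is paired with a single-site variant of the 7-mer TEVs (canonical ENLYFQ|S). The substrate sits between flexible linkers in a Bxb1-sfGFP-TEVs-SsrA fusion, so cleavage stabilises Bxb1 and speeds flipping of a recombination array, read by NGS. The value is the raw area under the fraction-flipped curve over 0-4 h after rhamnose induction (AUC4h), with ≥20 reads per time point. It is not background-subtracted; inactive controls average about 0.047.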
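Further: Bxb1 expression induced with 0.2% (w/v) L-rhamnose at OD600 near 0.5, cultures sampled hourly, flipped fraction per protease–substrate barcode pair counted by paired-end Illumina sequencing.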

Variant | area with substrate ENAYFQS | area with substrate ENCYFQS | area with substrate ENIYFQS | area with substrate ENDYFQS | area with substrate ENEYFQS | area with substrate ENFYFQS | area with substrate ENGYFQS | area with substrate ENHYFQS | area with substrate ENKYFQS | area with substrate ENMYFQS | area with substrate ENNYFQS | area with substrate ENPYFQS | area with substrate ENQYFQS | area with substrate ENRYFQS | area with substrate ENSYFQS | area with substrate ENWYFQS | area with substrate ENYYFQS | area with substrate ENTYFQS | area with substrate ENVYFQS
L205Q | 0.0571 | 0.0771 | 0.0948 |  |  |  |  |  |  |  |  |  |  |  |  |  |  |  | 
G2P | 0.0644 | 0.0741 |  | 0.056 | 0.0591 | 0.052 | 0.0741 | 0.0597 | 0.0623 | 0.0918 | 0.0784 | 0.0508 | 0.0583 | 0.0357 | 0.0569 | 0.0571 | 0.0528 |  | 
T55R | 0.063 | 0.0615 |  | 0.0517 | 0.061 | 0.0595 | 0.0612 | 0.053 | 0.0533 |  | 0.0631 |  | 0.0399 | 0.0463 | 0.0478 | 0.0663 | 0.0536 | 0.0755 | 
D161N | 0.043 | 0.0692 | 0.0707 | 0.0741 | 0.0458 | 0.0457 | 0.0605 |  |  | 0.0612 | 0.0627 |  | 0.0571 | 0.0563 | 0.0485 | 0.0472 |  | 0.0766 | 
S201T | 0.0603 | 0.0704 | 0.119 | 0.0379 |  |  | 0.0572 |  |  | 0.0986 | 0.0537 |  |  |  |  |  |  | 0.0685 | 0.0951
R51V | 0.0277 | 0.0653 | 0.14 |  | 0.0675 | 0.0638 | 0.0676 |  |  | 0.052 | 0.0654 | 0.0309 | 0.0587 | 0.0584 |  |  |  | 0.0634 | 0.072
Q197L | 0.0641 |  |  | 0.0745 | 0.0643 | 0.0782 | 0.0499 |  | 0.0682 | 0.0942 | 0.0515 | 0.0502 | 0.0566 |  | 0.0628 |  |  | 0.0669 | 0.0878
Q75S | 0.0656 | 0.0538 |  |  | 0.0565 | 0.0577 |  |  | 0.0556 | 0.0915 |  |  | 0.0346 |  | 0.0766 |  | 0.0543 | 0.0646 | 0.0636
K221P | 0.0487 | 0.0384 | 0.102 | 0.065 | 0.0582 | 0.0496 | 0.0543 | 0.0748 |  | 0.0763 | 0.0591 |  |  |  | 0.0479 |  | 0.0639 |  | 
T72I | 0.0726 |  |  |  | 0.0617 | 0.0465 | 0.0949 | 0.101 |  |  | 0.0579 | 0.0448 | 0.0551 |  |  |  |  |  | 
P89T | 0.0462 |  | 0.0541 | 0.0532 | 0.0656 |  | 0.0585 | 0.0588 |  |  |  |  |  |  | 0.0531 | 0.0104 |  | 0.0798 | 0.0696
T119K | 0.0639 |  |  | 0.0468 | 0.0675 | 0.0423 | 0.0075 |  | 0.061 |  | 0.0604 | 0.0581 |  | 0.0752 | 0.0571 |  | 0.045 |  | 0.0779
E195I | 0.054 | 0.0496 |  | 0.057 | 0.0539 | 0.0597 |  |  |  | 0.0669 | 0.0492 |  |  |  | 0.0693 |  |  | 0.0593 | 
L5G | 0.0525 |  |  | 0.0555 |  | 0.0716 | 0.0488 | 0.0603 | 0.0562 | 0.0839 | 0.0633 | 0.0569 |  | 0.0587 | 0.109 |  |  | 0.0663 | 0.0613
F95E | 0.0406 | 0.0415 | 0.0437 | 0.0499 |  | 0.0493 | 0.0515 | 0.0433 |  | 0.0572 | 0.0526 | 0.0403 | 0.0467 | 0.055 |  | 0.0203 | 0.0635 | 0.0464 | 
E107T | 0.0693 | 0.0765 |  |  | 0.0458 |  |  |  |  |  |  |  | 0.0583 |  | 0.0526 |  |  | 0.0479 | 
E107V | 0.0565 | 0.0735 | 0.105 | 0.0684 | 0.0669 |  | 0.0386 |  |  |  | 0.0572 | 0.063 | 0.0567 |  | 0.0645 | 0.0513 | 0.0669 | 0.0561 | 0.0819
M188G | 0.0629 | 0.0742 | 0.111 | 0.0598 | 0.0713 |  | 0.0376 | 0.0476 | 0.0755 | 0.0391 | 0.0629 |  | 0.0554 | 0.0593 |  | 0.0391 |  | 0.0842 | 
M188F | 0.0579 | 0.0691 |  |  |  |  |  | 0.0701 | 0.065 |  | 0.0255 |  | 0.0442 |  | 0.0638 |  | 0.0586 | 0.057 | 
I167Q | 0.0902 |  | 0.0526 |  | 0.0516 | 0.0224 | 0.06 | 0.0625 |  | 0.0546 |  |  | 0.055 | 0.0668 | 0.0661 |  |  | 0.0858 | 0.0853
G213I | 0.0691 |  | 0.0413 | 0.0577 | 0.0782 |  | 0.0547 |  |  |  |  |  | 0.0574 | 0.0489 |  | 0.0443 | 0.0479 | 0.0428 | 
V210W | 0.0788 | 0.055 |  | 0.0524 | 0.0555 | 0.0573 | 0.0551 | 0.0726 | 0.0589 |  | 0.0531 | 0.0609 | 0.0493 | 0.047 |  | 0.0542 |  | 0.0731 | 
W212H | 0.1 | 0.068 |  | 0.0587 | 0.0515 |  | 0.0545 |  | 0.0601 |  | 0.06 |  | 0.0566 |  | 0.0534 |  |  | 0.0447 | 
K7C | 0.0802 | 0.0623 | 0.0603 | 0.06 | 0.07 | 0.047 | 0.0538 |  | 0.0387 |  |  | 0.079 | 0.0985 |  |  | 0.0496 |  |  | 0.0893
Q151K | 0.0667 | 0.0618 |  |  | 0.0677 | 0.0655 | 0.0584 | 0.0574 | 0.0777 | 0.0534 | 0.0921 |  | 0.0681 | 0.0314 |  |  | 0.0485 |  | 0.0702
Q151V | 0.0648 | 0.0647 |  | 0.0599 | 0.06 | 0.0604 |  | 0.0631 |  |  | 0.0657 |  | 0.0642 |  | 0.059 |  | 0.0523 |  | 0.0817
C131G | 0.0751 |  |  |  | 0.0496 |  | 0.0563 | 0.0608 | 0.0296 |  | 0.051 |  |  |  |  |  | 0.0674 |  | 
E108K | 0.0604 |  |  |  | 0.0515 | 0.0609 | 0.0588 | 0.045 |  | 0.0456 | 0.055 |  | 0.0577 |  | 0.0547 |  |  |  | 0.0424
T174M | 0.0539 | 0.0585 |  | 0.0361 | 0.0614 | 0.0621 | 0.0511 |  |  |  | 0.046 | 0.0591 | 0.0518 | 0.0342 |  |  |  |  | 0.0721
V57F | 0.0617 | 0.0489 | 0.13 | 0.0553 | 0.0479 | 0.0594 |  | 0.059 |  |  | 0.0599 | 0.0556 | 0.0697 | 0.057 | 0.0601 |  | 0.0562 |  | 0.0816
